The campaign covered roughly 52,000 compounds. About 1,700 (3.3%) were called active. Rule as the data show it: active = survival mostly below about 52% (no sharp cut-off); inactive = mostly above about 56%. The list shows a part of the results.

The subject of the assay is Wild type. The assay is described as follows: growth inhibition of S. aureus wild type versus tarO mutant, primary screen, teichoic acid synthesis inhibitors, RN4220, OD600 (AID 463173). The conditions noted are these: S. aureus RN4220 wild type/DeltatarO growth, OD600, 18 h, stronger effect = lower value, screened at 18.75 µg/mL (by protocol).
Regarding `CC(=O)Nc1ccc(S(=O)(=O)NC2(C(F)(F)F)C(=O)Nc3c2c(=O)[nH]c(=O)n3-c2ccc(C)cc2)cc1` (configuration not stated), the survival was inactive: 63%.
The same measure for `COc1ccc(NC(=O)Cn2c(=O)n(Cc3ccccc3Cl)c(=O)c3cc(OC)c(OC)cc32)cc1`: inactive: 75%.
The value for `CCOC(=O)c1cc2c(=O)n3ccccc3nc2n(CCCOC)c1=NC(=O)c1cc2ccccc2o1` was inactive: 70%.
`O=c1oc2ccc(Cl)cc2cc1-c1nc(-c2cccs2)no1`: the survival was inactive: 100%.
For `Cc1ccc(CCNC(=O)c2cc3ccccn3n2)cc1`, the survival was inactive: 92%.
As to `Cc1ccc(Cn2c(C)c3cnn(CC(=O)N4CCN(c5cc(C)ccc5C)CC4)c(=O)c3c2C)cc1`, the survival was inactive: 65%.
The value for `COc1cccc(-n2c(C)nc3c(cnn3-c3ccc(C)c(C)c3)c2=O)c1` was inactive: 54%.
The same measure for `CCOc1cc2[nH]c(=O)n(CCC(=O)N3CCN(c4ccccc4)CC3)c(=O)c2cc1OCC`: inactive: 74%; for `COC(=O)c1c(NC(=O)CS(=O)(=O)c2ccc(C)cc2)sc2c1CCCCC2`: inactive: 67%.
The value for `Cc1ccc(-n2nc3c(N4CCCC(C(=O)NCc5ccccc5C)C4)nnc(C)c3c2C)cc1` (configuration not stated) was inactive: 80%; that for `Cn1c(=O)n(C)c2cc(CNCc3ccccc3Cl)ccc21` was inactive: 87%.
With `COc1cccc(C(=O)NCc2cn3cccc(C)c3n2)c1`, the survival is inactive: 90%.
Consider `O=C(c1ccccc1)N(Cc1ccco1)c1nc(-c2ccccc2)cs1`, for which the survival was inactive: 103%.
The same measure for `O=C(c1ccc(Cl)cc1)n1nc(-c2ccccc2)nc1NCc1ccco1`: active: 24%; for `COc1ccc2c(c1)c1c(c(=O)n(-c3cc(Cl)ccc3C)c(=O)n1Cc1ccc(F)cc1)n2C`: inactive: 124%.
With `CC(C)c1ccc(NC(=O)CSC2=Nc3ccccc3C3=NC(CCC(=O)NCc4cccs4)C(=O)N23)cc1` (configuration not stated), the survival was inactive: 89%.
The same measure for `CCOc1ccc(NC(=O)c2nn(C)c3c2COc2ccccc2-3)cc1`: inactive: 83%.
The value for `CCOc1ccc(S(=O)(=O)Nc2cc3c(C(=O)OCc4ccccc4)c(C)oc3c3ccccc23)cc1` was inactive: 117%.
Consider `Cc1c(Cl)cccc1-n1ncc(C(=O)NC2CCCC2)c1C1CCN(C(=O)OC(C)(C)C)CC1`, for which the survival was inactive: 66%.
As to `Cc1ccc(NC(=O)N2CCN3CCCCC3C2)cc1C` (configuration not stated), the survival was inactive: 69%.
The same measure for `Cc1cc(C)nc(NCC(O)CNc2ccccc2Cl)n1` (configuration not stated): inactive: 113%; for `CC(=O)c1c(C)n(-c2cccc(Cl)c2)c2ccc(OC(=O)c3ccccc3)cc12`: inactive: 91%; for `O=C(CNS(=O)(=O)c1ccccc1)NCC1CCCO1` (configuration not stated): inactive: 107%.
The same measure for `CCCOC(=O)c1c(-c2ccccc2)c(-c2ccccc2)nn(C)c1=O`: inactive: 86%; for `Cc1cc(C)c(-c2n[nH]c3c2C(c2ccccc2F)N(CCO)C3=O)c(O)c1` (configuration not stated): inactive: 83%.
The value for `COc1ccccc1C(=O)OCc1cc(=O)n2c(C)csc2n1` was inactive: 71%.
Regarding `CCSc1ncc(Cl)c(C(=O)Nc2cc(C)ccc2C)n1`, the survival was inactive: 90%.
The same measure for `COc1cccc(NC(=O)CSc2nc(=O)[nH]c3c2CCCC3)c1`: inactive: 85%; for `N#C/C(=C(/O)CN1C(=O)c2ccccc2C1=O)c1nc2ccccc2[nH]1`: inactive: 117%.
On to `COc1ccc(CCNC(=O)CN2C3CCCC2CC(=O)NC3)cc1OC` (configuration not stated), for which the survival is inactive: 94%.
For `COc1ccc(-c2[nH]c(-c3ccc(C)cc3)nc2SCC(=O)NCC2CCCO2)cc1` (configuration not stated), the survival is inactive: 86%.
In the case of `COc1ccc(Br)cc1CNCc1c(C(=O)O)c(C)n(Cc2ccccc2C)c1C`, the survival was inactive: 95%.
The same measure for `CCOc1ccc(-c2cc3nc(C4CCN(C(=O)OC(C)(C)C)CC4)c(C(=O)Nc4cccc(C(F)(F)F)c4)cn3n2)cc1`: inactive: 81%.
The value for `Cc1nc2cccnc2n1-c1cccc(C(=O)NCc2cccc(Cl)c2)c1` was inactive: 94%.
The same measure for `C=CCn1c(Br)nc2c1c(=O)n(C)c(=O)n2C`: inactive: 104%.
As for `CCS(=O)(=O)N1CC(=O)N(c2cc(Cl)ccc2C)C(C)(C(=O)NC2CCCCCC2)C1` (configuration not stated), the survival was inactive: 78%.
The value for `CCCCCOC(=O)CSc1nc2sc3c(c2c(=O)n1Cc1ccccc1)CC(C)(CC)OC3` (configuration not stated) was inactive: 61%; that for `Cc1cc2c(cc1S(=O)(=O)CCC(=O)N1CCN(c3ccccc3)CC1)OCC(=O)N2` was inactive: 91%.
The value for `COc1cc(Cl)c(NS(=O)(=O)c2cc3[nH]c(=O)c(=O)[nH]c3cc2C)c(OC)c1` was inactive: 128%.
Take `COc1cccc(C(=O)NC2=NC(c3ccccc3F)CC(=O)N2)c1` (configuration not stated): the survival was inactive: 73%.
Consider `CCOC(=O)N1CCN(C(=S)Nc2ccc3nsnc3c2)CC1`, for which the survival was inactive: 103%.
The same measure for `Cc1ccc(-n2c(=O)c3c4c(sc3n(CC(=O)C(C)(C)C)c2=O)CCCCC4)cc1C`: inactive: 73%; for `COc1ccc(-c2nc3scc(CCNS(=O)(=O)c4cccs4)n3n2)cc1`: active: 1%.
The same measure for `COc1ccc(CNC(=O)CCc2c(C)nn(-c3ccc(N4CCCC4)nn3)c2C)cc1`: inactive: 77%; for `CCOC(=O)Cc1ccc(NC(=O)Nc2nnc(N3CCCCC3C)s2)cc1` (configuration not stated): inactive: 89%.
Turning to `CN=C1SC(CC(=O)NC(N)=O)C(=O)N1C` (configuration not stated), the survival is inactive: 92%.
The value for `c1cc2c(cc1CNc1ccc(N3CCOCC3)cc1)OCO2` was inactive: 108%.
Regarding `COC(=O)c1ccc(NC(=O)c2c(-c3ccccc3)c(-c3ccccc3)nn(C)c2=O)cc1`, the survival was inactive: 86%.
The value for `O=C(Nc1ccc2c(c1)CCCN2C(=O)c1cccs1)c1ccccc1C(F)(F)F` was inactive: 70%; that for `CCCN(C(=O)c1cc2c(s1)-c1ccccc1OC2)c1ccc(C(C)C)cc1` was active: 5%.
On to `Cc1cccc(OC(=O)c2snnc2C)c1C`, for which the survival is inactive: 80%.
On to `CCC(=O)N1CCc2cc(Br)cc(S(=O)(=O)NCCc3ccc(C)cc3)c21`, for which the survival was inactive: 80%.
Take `CCOC(=O)c1ccc(NC(=O)Nc2cc3c(cc2N2CCCCC2)n(CC)c(=O)n3CC)cc1`: the survival is inactive: 109%.
For `Cc1ccc(S(=O)(=O)Nc2nc(C)c(NC(=O)NC3C=NN=C3)s2)cc1`, the survival is inactive: 106%.
Turning to `CCc1ccc(Nc2nc(-c3cc4cccc(OC)c4oc3=O)c(CC)s2)cc1`, the survival was inactive: 126%.
The value for `Cc1ccc(NC(=O)C2CCC(CNS(=O)(=O)c3cccs3)CC2)cc1C` (configuration not stated) was inactive: 75%; that for `COc1ccc(-c2nnn(CC(=O)N(CC(=O)NC3CCCC3)c3ccccc3)n2)cc1OC` was inactive: 104%.

Source of the values: PubChem BioAssay AID463173 (ICCB-Longwood Screening Facility, Harvard Medical School, 2010).
